Laboratory results reported in PubChem BioAssay AID1346428 (National Center for Advancing Translational Sciences (NCATS), 2018).
About 1,200 (2.5%) of roughly 48,000 compounds were called active. Roughly 2% stayed inconclusive and do not appear here.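 Rule for the calls: active = activation of at least 60% and not above a set upper limit (about 1 call in 100 departs from these limits); inconclusive = activation of 40% to 60%, or above that upper limit; inactive = activation under 40%.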 The list shows a part of the results.

Target: Probable G-protein coupled receptor 32 (Homo sapiens) (UniProt O75388)
Sequence of UniProt O75388 (O75388 whole entry, looked up): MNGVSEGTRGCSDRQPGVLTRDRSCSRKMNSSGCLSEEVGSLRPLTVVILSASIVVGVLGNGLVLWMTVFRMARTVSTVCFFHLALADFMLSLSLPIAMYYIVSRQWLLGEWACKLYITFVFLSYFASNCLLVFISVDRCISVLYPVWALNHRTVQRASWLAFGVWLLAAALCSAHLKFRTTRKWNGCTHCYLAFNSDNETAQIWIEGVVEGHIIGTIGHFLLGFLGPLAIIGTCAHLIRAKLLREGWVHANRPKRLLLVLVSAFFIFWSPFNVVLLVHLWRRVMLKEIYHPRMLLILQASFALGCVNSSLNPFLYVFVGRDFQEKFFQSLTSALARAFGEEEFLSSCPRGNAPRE
Assay: qHTS for Agonists of Human Resolvin D1 Receptor DRV1; note: 0% is about no effect
Conditions: CHO-K1 GPR32 beta-arrestin PathHunter luminescence, 90 min; at 76.9 µM; hits give high values; zero percent set by DMSO-only wells
In short: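 GPR32 activation in stably transfected CHO-K1 cells, detected as beta-arrestin recruitment by enzyme-fragment complementation. Compound exposure: 90 min, 37 °C.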

activation, inactive:
Cc1ccc2c(=O)c(C(=O)c3ccc(F)cc3)cn(CC(=O)NCCc3ccccc3)c2n1 -6.99%
CCOCCCNC(=O)C(=O)Nc1c2c(nn1-c1ccc(OC)cc1)CSC2 -39.4%
COc1ccc(CN(Cc2ccco2)c2cnc(S(C)(=O)=O)nc2C(=O)Nc2ccc(C)cc2C)cc1 -15%
Cc1c(C(=O)NCc2ccccc2Cl)sc2nc[nH]c(=O)c12 16.8%
CN1CCN(CCCNC(=O)c2ccc3nc(Cc4ccccc4)oc3c2)CC1 -10.5%
O=C(CN1CCCN(Cc2ccc(F)cc2)S1(=O)=O)NCc1ccccc1Cl -14.5%
Cc1csc2nc(COC(=O)CNC(=O)c3ccccc3Cl)cc(=O)n12 -4.18%
O=C(Nc1c(C(=O)N2CCN(c3ccccc3F)CC2)oc2ccccc12)c1ccccc1F 6.7%
O=C(CSc1nc2ccncc2[nH]1)Nc1ccccc1C(F)(F)F 8.97%
Cc1ccc(-n2nc3c(=O)n(CCCC(=O)NCc4ccccc4F)nc(C)c3c2C)cc1 -9.06%
Cc1nc(-c2ccc(S(=O)(=O)N3CCN(c4ccc(F)cc4)CC3)cc2)co1 6.73%
CNC(=O)c1cnn(-c2nc(N)c3ncn([C@@H]4O[C@H](CO)[C@@H](O)[C@H]4O)c3n2)c1 -2.13%
CCC12CN3CC(CC)(CN(C1)C3c1cc(Br)ccc1OC)C2=O (centres undefined) -8.73%
OCC1O[C@H](O)C(Cl)C(O)C1O (some centres undefined) 5.97%
CC(=O)N1CCOc2cc(S(=O)(=O)N(C)Cc3ccccc3)c(Cl)cc21 0.433%
CCC(=O)N1CCc2cc(Br)cc(S(=O)(=O)CCC(=O)NCc3ccc(F)cc3)c21 -5.52%
N#Cc1ccccc1NC(=O)c1cnc(N2CCOCC2)c2ccccc12 -6.93%
COc1cccc2c1Oc1ncccc1N(C(=O)CCC(=O)NCc1ccc(C)cc1)C2 -12%
Cc1ccc(Cn2c(CNC(=O)c3cccc(C)c3)nc3ccccc32)cc1 24.7%
COc1ccccc1-c1nnc(C2CCN(C(=O)c3ccc(Cl)cc3)CC2)o1 -8.57%
COc1ccc(NC(=O)Cc2noc3ccc(C)cc23)cc1Cl 7.58%
CCc1cccc(C)c1NC(=O)CCn1nc(C)c2c(C)n(-c3ccccc3)nc2c1=O -4.71%
CCOc1ccccc1O[C@H](c1ccccc1)[C@H]1CNCCO1 -20.3%
CC1=C(C(=O)Nc2cccc(C(F)(F)F)c2)C(c2ccccc2)n2ncnc2N1 (centres undefined) 6.68%
